# Laboratory results as given in PubChem BioAssay AID1347417 (National Center for Advancing Translational Sciences (NCATS), 2020).
# Screen size: about 120,000 compounds; about 5,300 (4.4%) were called active. The inconclusive results got no clear call from the source; some entries with a clear call stand among them for comparison. The call rests on the fitted dose curve; in most records, active means well fitted inhibition curve with a large enough effect; inconclusive means small, poorly fitted or top-dose-only effect; inactive means no such curve, though single readings can be large or run the other way. A potency beside an inconclusive call is a rough fit, not a confirmed value.
# Experiment: qHTS Primary assay for Inhibitors of Plasmodium falciparum Dd2 growth in vitro; further: nearly all actives have a fitted effect of over 65% in size;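 on activity, negative = inhibition: plate controls were DMSO vehicle for no effect and reference drug for full effect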
# Details: P. falciparum Dd2 growth, SYBR Green, 72 h; activity, negative = inhibition: at 28.9 µM (top of the series) unless noted; series mostly up to 28.9 µM
# How it was run: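 Infected erythrocytes (Dd2, 0.3% parasitemia, 2.5% hematocrit final) are added to compound in RPMI-1640/Albumax II medium, grown 72 h at 37C in low oxygen, then lysed with saponin/Triton-X containing SYBR Green and read by fluorescence.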
# Potency means the concentration at half of the fitted maximal effect; tags describe the fitted curve by direction and shape.
SMILES,Potency,"activity, negative = inhibition",outcome
Clc1ccc(CN2CCC[C@H]2c2nc(-c3ccc(N4CCOCC4)nc3)no2)cc1,"inconclusive: 15.8 µM [inhibitor, single point]",–,–
O=C(c1ccc(CNc2nccc(-c3cccnc3)n2)cc1)N1CCCCC1,"inconclusive: 20 µM [inhibitor, single point]",–,–
COc1ccc(Cl)cc1-c1ccc2c(c1)C(=O)N1CCN(C(=O)C3CCCC3)C[C@H]1C(=O)N2,"inconclusive: 8.91 µM [inhibitor, partial curve]",–,–
COc1ccccc1N1CCCc2ncc(C(=O)Nc3cccc(C(F)(F)F)c3)cc21,"inconclusive: 4.47 µM [inhibitor, partial curve, poor fit]",–,–
CCCc1nc2nc(C)c(NS(=O)(=O)c3ccc(F)cc3)c(=O)n2[nH]1,"inconclusive: 0.1 µM [inhibitor, full curve, poor fit]",–,–
CC(C)c1cc(C2CCN(Cc3cn[nH]c3-c3ccccc3)CC2)[nH]n1,"inconclusive: 12.6 µM [inhibitor, single point]",–,–
CCOC(=O)c1c(C)[nH]c(CCC(=O)Nc2c(Cl)cc(OC)cc2OC)c1C,"inconclusive: 8.91 µM [inhibitor, single point]",–,–
CCC1=Nc2cc(C(=O)NCc3ccccc3Cl)ccc2Sc2ccc(C)cc21,"inconclusive: 11.2 µM [inhibitor, single point]",–,–
COCCN1CC2(CCC1=O)CCN(C(=O)c1c(C)cccc1C)CC2,–,inactive: -6.88%,–
COCCn1ncc(N2CCCC(CC(=O)Nc3ccccc3OC)C2)cc1=O (centres undefined),–,inactive: 12.3%,–
COc1ccc(C(=O)N2CCn3c(nnc3[C@@H]3C[C@@H](O)CN3Cc3ccccc3)C2)cn1,–,inactive: -5.83%,–
CC(C)c1noc(CC2CCN(C(=O)c3ccsc3)CC2)n1,–,inactive: 12.1%,–
Cc1cc(C)c(NC(=O)Cn2c(=O)n(Cc3ccc4c(c3)OCO4)c(=O)c3ccccc32)c(C)c1,"inconclusive: 17.8 µM [inhibitor, single point]",–,–
CCCc1nnc(C[C@@H]2C[C@@H](C(C)C)[C@H](CN3CCC[C@H]3CO)C=C2C)o1,"inconclusive: 2 µM [inhibitor, full curve, poor fit]",–,–
Cc1cn2nc(-c3nc(C4CCCN(C(=O)Cc5ccc(F)cc5)C4)no3)cc2c(=O)[nH]1 (centres undefined),"inconclusive: 2.51 µM [inhibitor, partial curve, poor fit]",–,–
O=C(NCc1ccc(Cl)nc1)c1cccn2cncc12,"inconclusive: 3.16 µM [inhibitor, partial curve, poor fit]",–,–
Cc1ccc(S(=O)(=O)NCCn2c(C)cnc2C2CCC2)cc1F,"inconclusive: 6.31 µM [inhibitor, partial curve]",–,–
CC(C)(C)C(=O)N1CCc2nc(-c3ccc(Cl)cc3)nc(-c3ccccc3)c2C1,"inconclusive: 11.2 µM [inhibitor, partial curve, poor fit]",–,–
CCN1C(=O)C2(CCN(S(=O)(=O)c3ccc4c(c3)CCCC4)CC2)c2ccccc21,–,inactive: 1.66%,–
CN(C)c1cc(N2CCCC(NC(=O)c3ccsc3)C2)ncn1 (centres undefined),"inconclusive: 1.26 µM [inhibitor, partial curve]",–,–
COc1ccccc1C(=O)N1CCC(C)(C(=O)O)CC1,–,inactive: 12% [at 44.1 µM],–
Cc1ccc(C)c(C(=O)N2CCC(c3n[nH]c(=O)n3-c3ccccc3)CC2)c1,–,inactive: -15.2%,–
CCC(C)NC(=O)N1CC(Oc2ccccc2-c2nc(-c3ccccc3)no2)C1 (centres undefined),"inconclusive: 12.6 µM [inhibitor, partial curve]",–,–

SMILES,Potency,"activity, negative = inhibition",outcome
O=c1[nH]c(C2CCCN(Cc3cccs3)C2)nc2ccc(F)cc12 (centres undefined),"inconclusive: 11.2 µM [inhibitor, partial curve, poor fit]",–,–
COCCO[C@H]1COCCN(C2CCOCC2)C1,–,inactive: -6.73% [at 44.1 µM],–
CCOc1ccccc1C(=O)NC1CCN(c2cc(C(F)(F)F)nc(C)n2)CC1,"inconclusive: 3.98 µM [inhibitor, single point]",–,–
CCn1ccc(C(=O)N2CCCC(c3nn(C)c(=O)n3-c3ccccc3)C2)n1 (centres undefined),–,inactive: 7.47%,–
O=c1ncn(CC2CC2)c2ccc(-c3ccc(F)cc3F)nc12,–,–,inactive [at 44.1 µM]
CC(C)CN(CCCNC(=O)C1CCN(c2cnn(C)c(=O)c2)C1)CC(C)C (centres undefined),"inconclusive: 3.55 µM [inhibitor, single point]",–,–
COc1ccc(NC(=O)CN(C)S(=O)(=O)c2ccc3c(c2)CCC(=O)N3)c(OC)c1,"inconclusive: 5.01 µM [inhibitor, partial curve, poor fit]",–,–
Cc1cccc(Nc2c(-c3cccs3)nc3nc(C)cc(C)n23)c1,"inconclusive: 20 µM [inhibitor, single point]",–,–
CCc1ccc(CNC(=O)c2cc3c(=O)n(CC)c4ccccc4c3s2)cc1,–,inactive: -2.37%,–
Cc1cc(NS(=O)(=O)c2ccc3c(c2)CN(C(=O)CCC(C)C)CC3)no1,–,inactive: -1.65%,–
CCS(=O)(=O)N1CCN(C2CCN(CCC(C)C)C2=O)CC1 (centres undefined),–,inactive: -19.9%,–
Cc1ccc(C(=O)N2CCC(N3C(=O)CCC3C(=O)NCc3ccccc3)CC2)cc1 (centres undefined),–,inactive: 21.2%,–
CC1CCC(NC(=O)c2ccc3c(c2)N(Cc2ccccc2)C(=O)c2ccccc2S3(=O)=O)CC1 (centres undefined),"inconclusive: 1.58 µM [inhibitor, partial curve, poor fit]",–,–
COc1ccccc1CNC(=O)CCc1c(C)nc2c(c(C)nn2-c2ccc(C)c(C)c2)c1C,"inconclusive: 1 µM [inhibitor, single point]",–,–
c1ccc(-c2nnc3n2CCN(Cc2ccsc2)C3)cc1,–,inactive: -23.4% [at 44.1 µM],–
CCn1cc(-c2ccc(Cl)cc2)cc1C(=O)O,–,inactive: 15.1%,–
COc1ccc(-c2noc(-c3cccn3CC(=O)Nc3ccccc3)n2)cc1F,active: 1.58 µM,–,–
CC(C)(C)OC(=O)N1CCC(c2c(C(=O)NCc3ccccc3)cnn2-c2ccccc2)CC1,–,–,inactive
CCc1ccc(Cn2nc(C3CC3)nc2-c2cnn(C)c2)cc1,"inconclusive: 17.8 µM [inhibitor, single point]",–,–
O=C(NCC1CN(CC2CC2)CC12CN(c1ccccc1)C2)c1ccccc1 (centres undefined),"inconclusive: 3.55 µM [inhibitor, partial curve, poor fit]",–,–
O=C1c2cnc(-c3ccc(O)c(F)c3)nc2OCCN1c1ccccc1,–,–,inactive [at 44.1 µM]
Cc1ccc(CN2CCN(C(=O)CCC[C@H]3NC[C@@H]4C[C@H]3CN(Cc3ccccc3)C4)CC2)cc1,"inconclusive: 14.1 µM [inhibitor, partial curve, poor fit]",–,–
OCC1CN(Cc2ccccc2)CC12CCN(Cc1ccncc1)CC2 (centres undefined),"inconclusive: 3.55 µM [inhibitor, full curve, poor fit]",–,–

SMILES,Potency,"activity, negative = inhibition",outcome
COc1ccc(C(=O)N2CC3CC(C2)[C@H]2CCCC(=O)N2C3)c(OC)c1 (some centres undefined),–,inactive: -6.59%,–
CCOC(=O)c1cccc(NC(=O)N2CC[C@@H](CC(=O)NCc3ccc(OC)c(OC)c3)[C@@H](CC)C2)c1,"inconclusive: 1.58 µM [inhibitor, partial curve, poor fit]",–,–
COCc1cc(C)nc2sc(C(=O)Nc3ccc(OC(F)(F)F)cc3)c(N)c12,active: 3.98 µM,–,–
Cc1ccc(C(=O)N2CCC3(CC2)NC(=O)N(Cc2ccc(F)cc2)C3=O)cc1F,"inconclusive: 8.91 µM [inhibitor, partial curve]",–,–
O=[N+]([O-])c1ccc(S(=O)(=O)NCc2nc3cccnc3n2Cc2ccccc2Cl)cc1,–,inactive: -5.52%,–
COCc1cn([C@H]2CO[C@H]3[C@@H]2OC[C@H]3OC(=O)Nc2cccc(C(F)(F)F)c2)nn1,–,inactive: -20.7% [at 44.1 µM],–
Cc1ccc(S(=O)(=O)N2CCCC(CCC(=O)NC3CCCCC3)C2)cc1 (centres undefined),active: 12.6 µM,–,–
Cc1ccc(C)c(OCCn2cc(C(=O)c3cccs3)c3ccccc32)c1,"inconclusive: 17.8 µM [inhibitor, single point]",–,–
c1ccc(C2=NOC3(CCCN(CC4CCCC4)C3)C2)cc1 (centres undefined),"inconclusive: 11.2 µM [inhibitor, partial curve]",–,–
CCN1C(=O)c2ccccc2Sc2ccc(NC(=O)Nc3ccccc3OC)cc21,–,inactive: 24.9%,–
COCc1cc(C[C@@H]2C[C@H](NCC3CC3)C2(C)C)no1,–,–,inactive [at 44.1 µM]
CC1CCCCN1CCCNC(=O)c1[nH]c2ccccc2c1Sc1ccc(Cl)cc1 (centres undefined),"inconclusive: 17.8 µM [inhibitor, single point]",–,–
CN1CCN(C(=O)c2cccnc2)CC12CCC(=O)N(CC1CC1)CC2 (centres undefined),–,inactive: -9.59%,–
COCC1CN(C(C)=O)CC12CCN(C(=O)c1ccc(C)cc1C)CC2 (centres undefined),–,inactive: 15.7%,–
COCC(=O)NC[C@H]1CCN(Cc2ccccc2OC)C[C@H]1N(C)C,–,inactive: -15.3%,–
Cc1c(Cl)cccc1NC(=O)Cn1cc(C(=O)C2CCCCC2)c2ccccc21,"inconclusive: 17.8 µM [inhibitor, single point]",–,–
Cc1ccc(NC(=O)CSC2=Nc3ccccc3C3=NC(Cc4ccccc4)C(=O)N23)cc1C (centres undefined),"inconclusive: 11.2 µM [inhibitor, single point]",–,–
COCCN(C)C(=O)C(C)(C)Oc1nn(Cc2cccc(Cl)c2)c2ccccc12,"inconclusive: 14.1 µM [inhibitor, partial curve, poor fit]",–,–
Cc1ccc(-n2ncc(C(=O)NCCN3CCOCC3)c2C2CCN(C(=O)OC(C)(C)C)CC2)c(C)c1,"inconclusive: 17.8 µM [inhibitor, single point]",–,–
COc1ccc(NC(=O)Cc2ccc(N(Cc3cccc(F)c3)C(=O)c3ccco3)cc2)cc1,"inconclusive: 1.26 µM [inhibitor, partial curve, poor fit]",–,–
CN(C)c1ccc(-c2nc3cnccn3c2Nc2cccc(C(F)(F)F)c2)cc1,active: 8.91 µM,–,–
COc1ccc(N2Cc3c(NC4CCCC4)ncnc3N(C)CC2=O)cc1,–,inactive: -0.964%,–
Cc1noc(-c2cn(C3CCN(C(=O)Cc4ccc(Br)cc4)CC3)nn2)n1,"inconclusive: 2.51 µM [inhibitor, single point]",–,–
